Results on 56 variants are retold here after the RNAGym collection of RNA variant scans (doi:10.7554/elife.90254).

Read counts are not given, so values of variants with three or more changes are uncertain.

B1: LINE1-mini (parent)
chain: GGCAGAGCUCAACACAGCGUGGCAAAGUGGCUGUGGCUAGACUGCC

The variants in the data set derive from B1. As to the kind of experiment: self-cleavage, relative activity (ratio to wild type); higher = more cleavage; in vitro, sequencing; the parent is a self-cleaving ribozyme.
Consider GGCAGAGCUUAACACAGCGUGGCAAACCGGCUGUGGCUCGACUCCC [C10U G27C U28C A39C G44C], for which the self-cleavage came out at 0.
To GGCAGAGCUUAACACAGCGUGGCAAAGAGGCUGUGGCUUGACUGCC [C10U U28A A39U] belongs 0.2; to GGCAGAGCUCCUCACAGCGUGGCAAAGUGUCUGUGGCUAGAGUGCC [A11C A12U G30U C42G], 0.03.
Regarding GGCAGAGCUCCCCAAAGCGUGGCAAAGUGGCUGUGGCUAGACUGCC [A11C A12C C15A], the self-cleavage was 0.02.
In the case of GGCAGAGCUUAACACAGCUUGGCAAAGUGGCUUUGGCUAGACUGCC [C10U G19U G33U], the self-cleavage was 0.11.
With GGCAGAGCUUAACACAGCGUGGCAAAGUGGCUCUGGCUACACUGCC [C10U G33C G40C], the self-cleavage stood at 0.04.
Turning to GGCAGAGCUUAACACAGCGUGGCAAAGUUGCUGUGGCUAGUCUGCA [C10U G29U A41U C46A], the self-cleavage stood at 0.03.
To GGCAGAGCUUAACACAGCGUGGCAAAGUGGCUGGGGGUAGACUGCC [C10U U34G C37G] belongs 0.01.
On to GGCAGAGCUUAACACAGCUUGGCAUAGUGGCUGUGGCUAGACUGCC [C10U G19U A25U], for which the self-cleavage is 0.05.
With GGCAGAGCUUAACACAGCGACGCAAAGUGGCUGUGGCUAGAUUGCC [C10U U20A G21C C42U], the self-cleavage turned out to be 0.03.
To GGCAGAGCUCCCCACAGCGUGGCAAAGGGGCAGUGGCUAGACUGCC [A11C A12C U28G U32A] belongs 0.01; to GGCAGAGCUUAACACAGCGAGGCAAAGUGGCUGUGGGUAUACUGCC [C10U U20A C37G G40U], 0.01.
As for GGCAGAGCUUAACACAGCGUGGCAAAGUCGUUGUGGCAAGACUGCC [C10U G29C C31U U38A], the self-cleavage came out at 0.03.
Next, GGCAGAGCUUAACACAGCGUGGCAAAGCGGGUGUGGCUAGACUGCC [C10U U28C C31G]: 0.01; GGCAGAGCUUAACACAGCGUGGCAAAAUGGCUGUGGGUAGACUGCC [C10U G27A C37G]: 0.01; GGCAGAGCUUAACACAGCUUGGCAAAAUGGCUGUGGCGAGACUGCC [C10U G19U G27A U38G]: 0.03.
To GGCAGAGCUUAACACAGCGUGGCAAAGGGGCUGGGGCUAGACUGCC [C10U U28G U34G] belongs 0.04; to GGCAGAGCUCCACCCAGCGUGGCAAAGUGGCUGUGACCAGACUGCC [A11C A14C G36A U38C], 0.02; to GGCAGAGCUUAACACAGCGUGGCAAAGUGUCUGUGGCUAGACUUCC [C10U G30U G44U], 0.26.
For the variant GGCAGAGCUUAACACAGCGUGGCAAAGUGACAGUGGCUAGUCUGCC [C10U G30A U32A A41U], the self-cleavage is 0.07.
As to GGCAGAGCUUAACACAGCGCGGCACAGUGGCUAUGCCUAGACUGCC [C10U U20C A25C G33A G36C], the self-cleavage was 0.
Next, GGCAGAGCUUAACACAGCGUGGCAAAGUGGCUGCGGCUAGACUGCA [C10U U34C C46A]: 0.04; GGCAGAGCUUAACACAGCGUGUCAAAGUGGCUGUGGCUAGAAUGCC [C10U G22U C42A]: 0.06; GGCAGAGCUUAACACAGCGUGGCAAAGUUGCUGUCGCUAGACAGCC [C10U G29U G35C U43A]: 0.03.
With GGCAGAGCUCCUCACAGCGUGGAAAAGUGGCUGUGGCUAGAUUGCC [A11C A12U C23A C42U], the self-cleavage worked out at 0.02.
For GGCAGAGCUUAACACAGCGUUGCAAAGUGGCUGUGGCUAAACUGCC [C10U G21U G40A], the self-cleavage was 0.02.
Take GGCAGAGCUUAACACAGCGUAGGAAAGUGGCUGUGGCUAGACUGCC [C10U G21A C23G]: the self-cleavage turned out to be 0.2.
Regarding GGCAGAGCUUAACACAGCGUUGCAAAGUGGCUGUAGCUACACGGCC [C10U G21U G35A G40C U43G], the self-cleavage amounted to 0.01.
Take GGCAGAGCUUAACACAGCGUGUCAAAGUGACUGUGGCUAGACUGCC [C10U G22U G30A]: the self-cleavage was found to be 0.41.
As for GGCAGAGCUUAACACAGCGUGGCAAAGUGGCUGUGGCUAUUCUGCC [C10U G40U A41U], the self-cleavage came to 0.07.
As for GGCAGAGCUCCACCCAGCGUGGCAAAGUGGCUGCGGCUAGACUGUC [A11C A14C U34C C45U], the self-cleavage was found to be 0.02.
On to GGCAGAGCUUAACACAGCGCGGCAAAGUGCCUGUGGCUAGACUGCC [C10U U20C G30C], for which the self-cleavage came to 0.35.
GGCAGAGCUCCACUGAGCGUGGCAAAGUGGCUGUUGCUAGACUGCC [A11C A14U C15G G35U]: the self-cleavage was determined as 0.02.
To GGCAGAGCUUAACACAGCGUGCCAAAGUGGCUGUAGCUAGACGGCC [C10U G22C G35A U43G] belongs 0; to GGCAGAGCUUAACACAGCGUGGCAAAGAGGCUGAGGCUAGACUGCC [C10U U28A U34A], 0.36; to GGCAGAGCUUAACACAGCGUUGCAAAGUGGCUGUGGCUAGACUGUC [C10U G21U C45U], 0.13.
Next, GGCAGAGCUUAACACAGCUUGUCAAAGUGGCUGUGGCUAGUCUGCC [C10U G19U G22U A41U]: 0.24; GGCAGAGCUUAACACAGCGUGGCAAAGUGCCUGAGGCUAGACUGUC [C10U G30C U34A C45U]: 0.05; GGCAGAGCUUAACACAGCGUUGAAAAGUGGCUGUGGCUAGACUGCC [C10U G21U C23A]: 0.18.
Turning to GGCAGAGCUUAACACAGCGAGUCAAAGUGGCUGUGGAUAGACUGCC [C10U U20A G22U C37A], the self-cleavage was found to be 0.01.
Turning to GGCAGAGCUUAACACAGCGUGGCAAAGUGUGUGUGGCUAGACUGCC [C10U G30U C31G], the self-cleavage was 0.07.
For GGCAGAGCUUAACACAGCGUGGCAAAGUGGCUGUGUCUAGUCUGCC [C10U G36U A41U], the self-cleavage was 0.03.
For the variant GGCAGAGCUUAACACAGCGUUGCAAAGUGGCUGUGGCUAGACUACC [C10U G21U G44A], the self-cleavage was 0.12.
On to GGCAGAGCUUAACACAGCGUGGCAAACUGGCUGCGGCUAGACUACC [C10U G27C U34C G44A], for which the self-cleavage was found to be 0.04.
Consider GGCAGAGCUUAACACAGCUUGGCACAGCGGCCGUGGCUAUACUGCC [C10U G19U A25C U28C U32C G40U], for which the self-cleavage was 0.02.
Consider GGCAGAGCUUAACACAGCGAGGCACAGUGGCUGUGGCUAGACUGCC [C10U U20A A25C], for which the self-cleavage is 0.16.
As for GGCAGAGCUUAACACAGCGUGGCAAAGUCUCUGUGUGUAGACUGCC [C10U G29C G30U G36U C37G], the self-cleavage came to 0.02.
With GGCAGAGCUUAACACAGCGUGGCAAAGUGGCUGUGACUAGAGAGCC [C10U G36A C42G U43A], the self-cleavage was 0.01.
For GGCAGAGCUUAACACAGCGUGGCAAAGUGGCUGUGUCGAGACUGCC [C10U G36U U38G], the self-cleavage came to 0.01.
Next, GGCAGAGCUUAACACAGCGUGUCAAAGUGGCUGUGGCUCGACUGCC [C10U G22U A39C]: 0.12.
With GGCAGAGCUUAACACAGCGUGACAAUGUGGCUGUGGUUAGACUUCC [C10U G22A A26U C37U G44U], the self-cleavage is 0.02.
GGCAGAGCUUAACACAGCGUGGCAAAGCGGCUGUGGCUCGACUGCC [C10U U28C A39C]: the self-cleavage stood at 0.05.
Take GGCAGAGCUCCCCACAGCGUGGCAAAGUGGCUGUUGCUAUACUGCC [A11C A12C G35U G40U]: the self-cleavage stood at 0.
For GGCAGAGCUUAACACAGCUUGGCAAAGUGGCUGUGGCUCGACUGCC [C10U G19U A39C], the self-cleavage is 0.13.
For GGCAGAGCUCCCCACAGCGUGGCCAAGUGGCUGUUGCUAGACUGCC [A11C A12C A24C G35U], the self-cleavage worked out at 0.04.
For GGCAGAGCUUAACACAGCGGGGCAAAGUGCCCGUGGCUAGACUGCC [C10U U20G G30C U32C], the self-cleavage amounted to 0.03.
